# Laboratory results as given in PubChem BioAssay AID686978 (National Center for Advancing Translational Sciences (NCATS), 2013).
# Where “and” joins values, the source holds several entries; their conditions need not be identical. Equal values may be shown once. Among all 420,000 compounds or so, about 64,000 (15%) were called active. The shares of active, inactive and inconclusive entries below differ from those in the screen. Calls come from the whole dose curve; as a rule, active = well fitted inhibition curve with a large enough effect; inconclusive = small, poorly fitted or top-dose-only effect; inactive = flat fitted curve, though single readings scatter. Potencies of inconclusive entries are doubtful fits and often do not repeat.
# Assay: qHTS for Inhibitors of human tyrosyl-DNA phosphodiesterase 1 (TDP1): qHTS in cells in absence of CPT; note: nearly all actives have a fitted effect of over 55% in size
# Conditions: DT40 Tdp1-/- hTDP1 cells, no CPT, ATP luminescence, 48 h; activity change, negative = growth inhibition: at 46.2 µM (top of the series) unless noted
# Method in brief: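 Readout: luminescence from CellTiter-Glo after 30 min in the dark at RT. Cells: DT40 Tdp1-/- with stable hTDP1, 400/well. Exposure: compounds alone, ≥48 hr, 37 °C.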
# % is set by controls: 0 for no effect and ±100 for the full control effect; potency is the fitted concentration of half-maximal effect; tags give direction and shape of the fitted curve.
Structure (SMILES),Potency,"activity change, negative = growth inhibition"
CCCCNC(=S)N1CCN(C(c2ccccc2)c2ccccc2)CC1,"inconclusive: 23.1 µM [inhibitor, single point]",
COc1ccc(S(=O)(=O)N2CCOCC2)cc1NC(=O)c1sccc1C,"inconclusive: 16.4 µM [inhibitor, partial curve, poor fit]",
CCCCc1cc(=O)oc2cc(C)cc(OCC(=O)NCc3ccccn3)c12,"inconclusive: 29.1 µM [inhibitor, single point]",
CC(c1ccccc1)n1c(N2CCN(C)CC2)nc2c1c(=O)[nH]c(=O)n2C (configuration not stated),,inactive: -2.24%
COc1ccccc1CN1CCNC(=O)C1CC(=O)NCCC1=CCCCC1 (configuration not stated),"inconclusive: 29.1 µM [inhibitor, single point]",
S=c1[nH]nc(/C=C/c2ccccc2)o1,,inactive: -6.07%
O=C1N(Cc2cccnc2)C[C@@H]2C[C@@H](c3ccc(-c4ccccc4)cc3)N3CCC[C@@]123,"inconclusive: 23.1 µM [inhibitor, single point]",
Cc1c(CNC(C)c2ccccc2)c(C(=O)O)c(C)n1Cc1c(F)cccc1Cl (configuration not stated),"inconclusive: 29.1 µM [inhibitor, single point]",
CCOC(=O)[C@]12CCCC=C1N(Cc1ccc3c(c1)OCO3)C(=O)[C@H](CC(=O)NCCc1ccccc1OC)C2,active: 16.4 µM,
CCOc1ccc2ccccc2c1/C=N/NC(=O)CNC(=O)c1ccccc1F,"inconclusive: 20.6 µM [inhibitor, partial curve, poor fit]",
O=C(COC(=O)c1ccc2c(c1)OCO2)NCc1ccc(Cl)cc1,"inconclusive: 23.1 µM [inhibitor, single point]",
COc1ccc(CCC(=O)NNC(=O)Nc2cc(Cl)ccc2C)cc1,,inactive: 2.95%
O=C1C=C(OCCF)CC(c2ccc(Br)cc2)O1 (configuration not stated),,inactive: 9.12%
CCOC(=O)C1CCCN(C(=O)c2cc3c(=O)n(C)c4ccccc4c3s2)C1 (configuration not stated),"inconclusive: 18.4 µM [inhibitor, single point]",
O=C(NC1CCN(Cc2ccccc2)CC1)c1ccc(CS(=O)c2ccccc2Cl)o1 (configuration not stated),"inconclusive: 29.1 µM [inhibitor, partial curve, poor fit]",
Cc1ccc(C(=O)C2(C)C3c4cc(Br)ccc4OC(=O)C32C(=O)c2ccco2)cc1 (configuration not stated),"inconclusive: 29.1 µM [inhibitor, single point]",
COc1ccc(OC)c(CCNC(=O)CS(=O)(=O)Cc2nc(-c3ccccc3Cl)oc2C)c1,"inconclusive: 25.9 µM [inhibitor, single point]",
COc1ccc(C2=C(C#N)C(=O)OC2)cc1,,inconclusive: -32.4% [inhibitor]
Cc1cnc(NC(=O)CCNC(=O)c2ccc([N+](=O)[O-])cc2)s1,"inconclusive: 29.1 µM [inhibitor, single point]",
COc1cc(-c2noc(C)c2C#CC2(N)CCCCC2)cc(OC)c1OC,"inconclusive: 25.1 µM [inhibitor, single point] and inconclusive: 23.1 µM [inhibitor, single point]",
CN(c1ccccc1)S(=O)(=O)c1cccc(C(=O)N2CCCCCC2)c1,active: 20.6 µM,
COc1ccc(Cc2nc3ccc(C(=O)N4CCCCC4CO)cc3o2)cc1OC (configuration not stated),active: 20.6 µM,
Cc1ccc(C)c(NNC(=O)C(=O)NNc2cc(C)ccc2C)c1,,inactive: -0.955%
CC(C)OC(=O)C1C2C=CC3(CN(Cc4cccs4)C(=O)C13)O2 (configuration not stated),,inactive: -16.2%

Structure (SMILES),Potency,"activity change, negative = growth inhibition"
C=CCNC(=O)/C(C#N)=C/c1ccccc1OCc1ccc(C(=O)OC)cc1,active: 7.31 µM,
O=C(CCCN=C1NS(=O)(=O)c2ccccc21)OCc1ccc(F)cc1,"inconclusive: 23.1 µM [inhibitor, single point]",
Cc1ccc(-c2cc(-c3ccccc3)nc(NN)n2)cc1,,inactive: -22.3%
C[C@H]1CN([C@@H](C)CO)C(=O)CCCn2nncc2CO[C@@H]1CN(C)Cc1cccc(O)c1,,inactive: -4.09%
CCCc1ccc2oc(C(=O)NCCN3CCCC(C(N)=O)C3)c(C)c2c1 (configuration not stated),"inconclusive: 29.1 µM [inhibitor, single point]",
CCCCOC(=O)c1cc2c(cn1)[nH]c1ccccc12,active: 13.3 µM and active: 18.4 µM,
Cc1ccc(NC(=O)C2(C)CCN2C(=O)Cc2ccccc2)cc1C (configuration not stated),active: 16.4 µM,
CCCCn1c(N)c(N(CCOC)C(=O)COc2c(C)cccc2C)c(=O)[nH]c1=O,,inactive: -10.6%
CC1(C(=O)NS(=O)(=O)c2ccccc2Cl)CCN1C(=O)C1(c2ccc(Cl)cc2)CCC1 (configuration not stated),,inactive: -13.8%
CCNC(=O)C1(C)CCN(Cc2ccc(C#N)cc2)C1 (configuration not stated),,inactive: -13.3%
CSc1nc(N)n2nc(-c3ccc(Cl)cc3)cc2n1,,inactive: -25.3%
CC(=O)c1ccc(NC(=O)c2ccn[nH]2)cc1,"inconclusive: 25.9 µM [inhibitor, single point]",
Cc1cccc[n+]1C1C(c2ccc([N+](=O)[O-])cc2)C(C#N)=C(C(=C=[N-])C#N)NC1(O)C1CC1 (configuration not stated),,inactive: -24.7%
O=c1oc(C2(O)CCCCC2)cc2ccc(-c3ccc4[nH]ccc4c3)cc12,"inconclusive: 13 µM [inhibitor, single point]",
COc1ccc(Br)cc1CN(C)C(=O)Cc1ccc(S(=O)(=O)N2CCOCC2)s1,active: 20.6 µM,
Cc1ccccc1-c1nc(CS(=O)(=O)CC(=O)NCCN2CCCC2)c(C)o1,,inactive: -8.32%
COc1ccc(NC2CCCN(C(=O)c3cn(C)c4ccccc34)C2)cc1 (configuration not stated),,inactive: 4.03%
O=C(Nc1ccc2c(c1)OCO2)c1ccc2sc([C@H]3C[C@H](O)[C@@H](CO)O3)nc2c1,,inactive: -25.1%
CCc1ccc(N2C(=O)CS(=O)(=O)C23C(=O)N(Cc2ccccc2)c2ccccc23)cc1 (configuration not stated),"inconclusive: 23.1 µM [inhibitor, single point]",
CCOc1ccc(OCC)c(NC(=O)C2CCCN(S(=O)(=O)c3c(C)noc3C)C2)c1 (configuration not stated),"inconclusive: 20.6 µM [inhibitor, single point]",
COc1cc(-c2noc(-c3nnn(-c4ccc(Cl)cc4)c3C)n2)cc(OC)c1OC,"inconclusive: 14.6 µM [inhibitor, partial curve]",
Cc1ccc(C2NC(=O)CCC2[N+](=O)[O-])cc1 (configuration not stated),"inconclusive: 18.4 µM [inhibitor, single point]",
COc1cc(O)c(C(=O)/C=C/c2ccccc2)c(OC)c1,active: 18.4 µM,
O=C(CNC(=O)N1CC(=O)Nc2ccccc21)NCc1ccc(Cl)cc1,,inactive: 11.2%

Structure (SMILES),Potency,"activity change, negative = growth inhibition"
CCCCOCCCNC(=S)Nc1ccc(S(=O)(=O)N2CCOCC2)cc1,"inconclusive: 13 µM [inhibitor, partial curve, poor fit]",
O=C(c1ccc2c(=O)n(Cc3ccc(Cl)cc3)c(=S)[nH]c2c1)N1CCOCC1,"inconclusive: 23.1 µM [inhibitor, single point]",
CCOc1ccc(NC(=S)N2CCCN(Cc3cccc(Cl)c3)C2)cc1,"inconclusive: 29.1 µM [inhibitor, single point]",
Cc1ccc(OCCCCN2CCCCC2)c(Br)c1,"inconclusive: 25.9 µM [inhibitor, single point]",
CCOc1ncccc1C(=O)NCCc1c[nH]c2ccccc12,"inconclusive: 20.6 µM [inhibitor, single point]",
Cc1cc(/C=N/n2cnnc2)c(C)n1-c1ccc2ncccc2c1,"inconclusive: 29.1 µM [inhibitor, single point]",
CCc1ccc(NC(=O)CS(=O)CC(=O)N2CCN(c3ccccc3F)CC2)cc1 (configuration not stated),,inactive: -0.775%
Cc1ccc(NC(=O)CSc2nsc(SCC(=O)Nc3ccc(C)cc3C)c2C#N)c(C)c1,"inconclusive: 11.6 µM [inhibitor, partial curve]",
COc1ccc(OC)c(NC(=O)c2ccc(-c3csc(C)n3)cc2)c1,"inconclusive: 29.1 µM [inhibitor, single point]",
C#Cc1ccc(NC(=O)C2(C)CCN2C(=O)c2ccccc2CCc2ccccc2)cc1 (configuration not stated),"inconclusive: 29.1 µM [inhibitor, single point]",
CCOc1ccc(NC(=O)CN(C)C(=O)c2cccnc2SC)cc1OCC,,inactive: -10.7%
CC(O)(c1cccc(F)c1)c1nc(-c2cc(F)cc(F)c2)cs1 (configuration not stated),"inconclusive: 20.6 µM [inhibitor, single point]",
COc1cccc(C(=O)Nc2ccc(N3CCN(C(=O)c4ccco4)CC3)cc2)c1,active: 11.6 µM,
CCC(=O)Nc1ccc(C(=O)OCc2ccccc2)cc1,,inactive: -1.15%
COc1ccc(C(CNC(=O)c2cccc(S(=O)(=O)Nc3ccccc3Cl)c2)N2CCOCC2)cc1 (configuration not stated),"inconclusive: 20.6 µM [inhibitor, single point]",
Cc1ccc(-n2nc(CO)c(C(=O)NCCc3ccccc3)n2)cc1C,"inconclusive: 29.1 µM [inhibitor, single point]",
Nc1nc2n(n1)C(c1c(F)cccc1Cl)CC(c1ccc(F)cc1)N2 (configuration not stated),,inactive: -20.8%
CCCc1nn(C)c2c(=O)[nH]c(-c3cc(S(=O)(=O)N4CCN(C)CC4)ccc3OCC)nc12,inactive,
CCC(C(=O)N1CCCCCC1)n1nc(C)n2c(cc3occc32)c1=O (configuration not stated),,inactive: -0.0442%
CC(C)c1ccc(/C=C2\SC(=S)N(CCC(=O)N3CCCCC3CCO)C2=O)cc1 (configuration not stated),active: 20.6 µM,
COc1ccc(CCC(C)N2CCc3ccccc3C2)cc1 (configuration not stated),,inconclusive: -32.3% [inhibitor]
Cc1cccn2c(=O)c3cc(C(=O)NC4CCCCCC4)sc3nc12,"inconclusive: 23.1 µM [inhibitor, single point]",
COc1ccc(-c2ccc(SCC(=O)N3CC(=O)Nc4ccccc43)nn2)cc1,"inconclusive: 25.9 µM [inhibitor, single point]",
O=C(COC(=O)c1ccccc1C(F)(F)F)NC(=O)NCc1ccco1,,inactive: -2.26%
